B1: CPEB3 Ribozyme (parent)
chain: UAACAGGGGGCCACAGCAGAAGCGUUCACGUCGCAGCCCCUGUCAGAUUCUGGUGAAUCUGCGAAUUCUGCUGUAUAUCUC

The source gives no read counts; variants with many changes may rest on few reads.

In this data set the parent is B1. Put plainly: self-cleavage, relative activity (ratio to wild type); higher = more cleavage; in vitro, sequencing. In short, it runs like this:
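CPEB3 self-cleaving ribozyme mutant libraries were made by rounds of error-prone PCR, barcoded, and transcribed in vitro with T7 RNA polymerase for 5 hours at 37°C. Cleavage occurred during transcription and a 15 min DNase I step before EDTA stop. RNAs were reverse transcribed with template switching and Illumina-sequenced, with DNA sequencing mapping barcodes to variants. Relative activity is the variant's cleaved/total read fraction divided by wild type's (minimum 5 reads), averaged across three batches.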
As to U1C A2C A5U U31C U43C, the self-cleavage turned out to be 0.37.
As to U1A A15C A47G A57U U60C A75U, the self-cleavage was determined as 0.09.
With U1A U31C U54A A57G A65G U72C the figure was 0.29; with U1A A3C A57G U69C A75G, 0.76; with U1A U26C C27A, 0.11.
The same measure for U1A A18G C29A: 0.31; for U1A C11G A28G C40A U54A: 0.08.
As to U1A A15U U26A U72A G73A, the self-cleavage turned out to be 1.14.
In the case of U1A A21G U69A, the self-cleavage came out at 0.39.
The same measure for U1A U31C A56G A64G U76C U78A: 0.18.
Regarding U1A G6U A18C A20U C62A U69C U80C, the self-cleavage amounted to 0.13.
The same measure for U1A G10A G42A A56G A64U U78C: 0.04.
In the case of U1C A3G A20G U26C U48C U66C A77G, the self-cleavage was 0.36.
With U1C A2G C34G C44U U66A the figure was 0.17; with U1A A18G U54C, 0.77.
With U1A G10A C11U U25C A56G A75U the figure was 0.06; with U1A G7U A15G U51C U69C, 0.21; with U1C A2G C44U G46A U66A U72C C79A, 0.08.
For the variant U1A A13U U60C U76G U80C, the self-cleavage is 0.6.
As to U1A A13U U25A A47U U51G, the self-cleavage stood at 0.09.
Consider U1A U25A A47G G55A U72C, for which the self-cleavage was 0.06.
The same measure for U1A U58C U76A: 0.78; for U1A C29U A45G A77G: 0.28; for U1A C12U G30U U41A U49C A65G: 0.13.
As for U1A A65G U80A, the self-cleavage was determined as 0.41.
With U1A A21G U25A C32U C40A G46U the figure was 0.06; with U1A A3G U60C, 0.59.
Regarding U1A C62G A64U, the self-cleavage was found to be 0.15.
With U1A U48C U51C U54C A77G the figure was 0.33; with U1A U41C U43A U51C, 0.51; with U1C A2C U41A U48C U72A, 0.26.
As for U1A C4G C17G A28C U67C, the self-cleavage amounted to 0.15.
With U1A U25C G36A the figure was 0.06.
With U1A U41C U51A the figure was 1.09.
On to U1A C11G U31C A35U U43A, for which the self-cleavage turned out to be 0.14.
The same measure for U1A A28U U43C G52U A57U U72C: 0.16; for U1C A2U A13G C34U U60C: 0.09.
On to U1A U25C U60C A64U, for which the self-cleavage turned out to be 0.14.
With U1A U25A U31C U54C U80A the figure was 0.09.
With U1C A2G A28C the figure was 0.46; with U1A U58C A64U U76C, 0.24.
Turning to U1A A5C U51C, the self-cleavage was 0.65.
With U1A G9A A20C the figure was 0.06.
On to U1A A35G U43C A45G U48C U49C U51G, for which the self-cleavage was 0.38.
On to U1A A15G U26C C38A A57G U58G U69A, for which the self-cleavage is 0.07.
Regarding U1A A15U U58A, the self-cleavage turned out to be 0.24.
Take U1A G36U U48C G55A U67A U78C: the self-cleavage turned out to be 0.08.
The same measure for U1A A3G A15U A20G: 0.88; for U1A A20G U31A U43C U54C U72C: 0.08; for U1C A2U U26C A65G U67C G70A: 0.06.
For the variant U1A A5C G42U U67C, the self-cleavage was determined as 0.28.
For the variant U1C A3G A18G A35G, the self-cleavage amounted to 1.04.
For the variant U1C A3G A20G A28U C39U U58A G70U, the self-cleavage was 0.23.
The same measure for U1A A15G A20G A35G A75U: 0.67.
For the variant U1A C4U C29G A35G U43G A65G, the self-cleavage is 0.34.
U1A A2C A3G U54C: the self-cleavage is 1.3.
Turning to U1A G33U U54C, the self-cleavage turned out to be 0.19.
For the variant U1C A2U G70A, the self-cleavage was found to be 0.23.
As to U1A U54A A65G U72A, the self-cleavage turned out to be 0.16.
The same measure for U1A U43C A64G U69A U72A: 0.08; for U1A A5G A20U U60C: 0.1; for U1A C12A A20U A35U A45G: 0.19.
With U1A C12U A21G G42U G46U the figure was 0.09; with U1A C11G A21G U41G, 0.08.
On to U1A A2G A13U A35G U43A U69C, for which the self-cleavage amounted to 1.15.
Consider U1A A35U U54C C79A, for which the self-cleavage worked out at 0.51.
With U1A A2G C14U A45G U48C U67C, the self-cleavage was 0.19.
On to U1A A5G C38A G42A A45G U72C, for which the self-cleavage was found to be 0.33.
Regarding U1A C17A U25C A47G A56U U78C, the self-cleavage was determined as 0.07.
As for U1C A2G U25A A47U U67C, the self-cleavage came out at 0.07.
As to U1A U51A U54A A64G U69C A77C U78A, the self-cleavage was 0.49.
Regarding U1C A2G A15C, the self-cleavage was determined as 0.83.
With U1A G10A A35U C37U U74A, the self-cleavage came out at 0.68.
The same measure for U1A A21G U43A U48C U80C: 0.32; for U1A A15G A35G U41G U54A U67C U80C: 0.14; for U1A U41C U66C: 0.33.
Consider U1A C12U U69C, for which the self-cleavage turned out to be 0.95.
As for U1C A3C C14U U26C, the self-cleavage is 0.51.
With U1C A3C A13C C62A U69C C71U, the self-cleavage stood at 0.16.
Consider U1A G19U U25C G36U A45G A57U A64G, for which the self-cleavage turned out to be 0.1.
With U1A A15C U41C U67C the figure was 0.29; with U1A A15G U43C A64G, 0.25.
Take U1A G33U A47G U69A: the self-cleavage turned out to be 0.18.
The same measure for U1A G16U U41C A65G: 0.13.
With U1A G42A C44G, the self-cleavage was determined as 0.06.
The same measure for U1A A18U A35G U41C U49C: 0.35; for U1A A13U A56G G61A U78C: 0.52.
For U1A G9U A56G U66A C68U, the self-cleavage turned out to be 0.14.
For the variant U1C A2G A15G U54A A65U, the self-cleavage was determined as 0.21.
With U1A A2G G16C the figure was 0.57.
In the case of U1A U49C G53A U69A, the self-cleavage came out at 0.11.
In the case of U1A A3C A5G A13G U41C U58C, the self-cleavage worked out at 0.58.
In the case of U1A C12A A13C U54G U76A U80C, the self-cleavage is 1.02.
With U1A A64G U80C the figure was 1.08; with U1A A18G U49C U58C, 0.11.
Take U1A A3U U25C A35G U58G U76C: the self-cleavage is 0.12.
With U1A A35G U58C the figure was 1.04; with U1A U49A U51A, 0.24.
On to U1C A2U C29U A47U, for which the self-cleavage amounted to 0.43.
U1A A3G A20U U26C A35G U72G: the self-cleavage turned out to be 0.47.
With U1A A20G U48C U60C A64U the figure was 0.11; with U1A U26C A28U C34A C39A U49C U51A, 0.16.
The same measure for U1C A3G A20G C32A U43C U51A: 0.08; for U1A G53A U76C A77U: 1.16; for U1A A3G U26C: 0.65.
The same measure for U1A C17G U26C U43C A56G U80C: 0.09.
For U1A A13U C14U U49C, the self-cleavage came to 0.55.
The same measure for U1A U25C U51A A56U A65C G73A: 0.16; for U1A A2C A18G A47G: 0.53; for U1A A15G A45G A57G U78C U80C: 0.58.
The same measure for U1C A2G C39U A77G: 0.41; for U1A U58C A65G G70A: 0.31; for U1A A2G A13U U66C: 0.48.
With U1A A2C A3C C81U the figure was 1.23; with U1A A3G A13U, 1.03.
Regarding U1C A2G A65G, the self-cleavage stood at 0.33.
For U1A U43A U58C G70U U74C, the self-cleavage came to 0.2.
With U1A U60A A64G the figure was 0.13; with U1A A5G U41A U54A U67G, 0.24; with U1A U74C U80C, 1.23.
With U1A C12A U43C U69C U72C the figure was 0.09.
With U1A A5G A35U G42U U80C the figure was 0.12; with U1A G30A U41C U43C U48A, 0.32; with U1A C12A U26C U31C, 0.39.
Consider U1C A3C A18U U26C, for which the self-cleavage was 0.47.
With U1A G63A U66C the figure was 0.28; with U1A A13U A21G U25C A28G C59A U74C, 0.15.
The same measure for U1A A2U A18G U54C G70A: 0.23; for U1A A2G A77U: 0.99; for U1A A13U U54C U69C: 0.48.
The same measure for U1A G9U A47G C71U: 0.06; for U1A G19U A45G A57G A64U: 0.1.
Turning to U1A U43C U67C, the self-cleavage stood at 0.21.
The same measure for U1A A13C U43C A57G: 0.16; for U1A G8A A65G U80C: 0.08; for U1A A15G U26C U69A: 0.18.
With U1C A2G G7A C11U A47G A56G U80C, the self-cleavage was 0.04.
With U1A U31C U51C U60C U80C the figure was 0.18; with U1A A35G U67C, 0.78; with U1A G6U C17U A20G U25C A47G G53U, 0.18.
As to U1A A3C A13U C81G, the self-cleavage stood at 1.23.
In the case of U1A A18U U26A A64G, the self-cleavage came out at 0.14.
The same measure for U1C A2G C4U A28U A57U: 0.46; for U1A A2G U54A: 0.92.
U1A A5U U67C: the self-cleavage came to 0.2.
With U1A A56G G63U U66A C68U the figure was 0.23; with U1C A2G U48C, 0.45.
With U1A A15U U43C U74C A75G the figure was 0.81.
With U1A A5C A64G U76C, the self-cleavage is 0.94.
The same measure for U1A A3G U25C: 0.13.
The same measure for U1A A15G A18G G53U: 0.12.
On to U1A A45G G52U A65G U66C U78C, for which the self-cleavage turned out to be 0.12.
U1A G7A C11A A65G A77G: the self-cleavage was found to be 0.06.
As to U1A A18U G22C U25C G63A, the self-cleavage amounted to 0.07.
On to U1A U25C U54A U66C A77U, for which the self-cleavage was 0.18.
Take U1A A35U A65C: the self-cleavage was found to be 0.12.
For U1A U41C U51A U66C U69A, the self-cleavage was 0.47.
The same measure for U1A A3C U48C A57G U69C C71G: 0.21; for U1C A2G U25C U51C A56U: 0.37; for U1A A18U U49G: 0.16.
With U1A C29U G33A G36A G63A the figure was 0.13; with U1C A3G A5G C38A U41C, 0.09; with U1A A2U U69A, 0.61.
The same measure for U1A G7U G9C U69G: 0.07.
In the case of U1A G30C C37U U43A A64U, the self-cleavage was found to be 0.17.
As to U1A C32A A56G U66C U78C, the self-cleavage was determined as 0.15.
With U1A A20U A47G A64G A75G the figure was 0.16.

Values taken from the RNAGym collection of RNA variant scans (doi:10.1093/nar/gkz1192).
